# The list shows a part of the results.
# Tested on: PfSIP2 AP2 domain 1 (GST-tagged)
# Test: gcPBM binding intensity (ln(normalized median fluorescence intensity)); higher = stronger DNA binding
# In short: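 DNA-binding domains from P. falciparum, fused to GST and produced in E. coli, were put on an Agilent 4 × 180k double-stranded probe array for 1 h in 1× PBS holding 1% milk, 0.2 mg/ml BSA, 0.5% salmon testes DNA and 0.03% Triton X-100. Probes were primer-extended, 36 bp long and drawn from intergenic genomic regions, with negative controls included. After Alexa488 anti-GST antibody detection and a 488 nm scan, binding intensity was set as the highest Masliner-normalised natural-log median intensity across replicate spots of either probe orientation.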
row,Sequence,gcPBM binding intensity (ln)
1,ATATTAAAATTAAACGCATGCATATATTATAAAAGA [TGCATGCA_site231],6.89
2,CTAATTAATGGGTACATACACACATATATACATACA [CACACA_site743],7.16
3,TTCTGTATAACACAAATTTTTTTTTATTCACTCTGT [TGCATGCA_negctrl_site410],6.93
4,TTTTTATCAAATAAATGTACACATATTAAATGAAAT [XGTACX_site555],7.11
5,AACACTTCATACACGTGTACAAATATAATATAGACA [XGTACX_site5671],7.23
6,GGAAATAATATTATTACACACCAAAATGTATAAAAA [CACACA_site4036],6.89
7,AAAATATTCACGTGTACATATATATATATATATTAT [TGCATGCA_negctrl_site192],7.4
8,AAAAAAAAAAAAAACACACACACACGCATACAAAAT [CACACA_site6794],7.5
9,TTATATCTTATAAAATGTACATAAAATATATAATAT [XGTACX_site7647],7.18
10,ATATTTTTCTTAAGTACACACTAAATAGAAACTAAA [CACACA_site4191],7.31
11,ATTAATTATATAATATGTACATATTACAAATATATA [XGTACX_site1478],7.22
12,AATAATATAACAGAACAAAACTAAATATACACATAT [TGCATGCA_negctrl_site31],7.14
13,TATTTCATAATAAATTGTACGCGTAGAAAACCATGA [XGTACX_site7506],7.35
14,TATATATATATAGATGCATGCAATTACATATAACAA [TGCATGCA_site118],9.05
15,TTGTGTACATATTAAGTGCATATATATATATATATA,9.85
16,ATTTTCTATATCTTTCAACACACAAATTTTTTTTTC [CACACA_site7918],7.15
17,TACATCAAACAAGTATGTACATATATATATATATAT [XGTACX_site7415],9.31
18,GCATATGATGAGCATATAATCATAAGAAAAAAAAAA [CACACA_negctrl_site701],6.72
19,AATAAATAGTAGTAGGTGCTACTATATTATATATAT [GTGCAC_site9452],7.65
20,TATGTAATAATAAACGGTACACTATATTGTATGAAA [XGTACX_site4648],7.08
21,ATTATGAATTTTAATTGTACATTATTATAGAATGTA [XGTACX_site619],6.76
22,AGTTATTTTTATATTTCACACACATATACTTTTACA [CACACA_site9357],7.21

row,Sequence,gcPBM binding intensity (ln)
1,AATAATTCTTAAAGGTGTACAATATGTATATAAGAA [XGTACX_site595],7.39
2,AAAAATTCTTCCCAAGCATGCGCGCGTAAAATATTT [TGCATGCA_site77],6.67
3,AAATTTTTTATTAGTAGTACGCATAAATATATGTAT [XGTACX_site1934],7.22
4,AAAAAAAAAAGAAAAGGTACACAGAATATATATATA [XGTACX_site6914],9.16
5,AAAAAAATAAGACACACACACAAAAAAATAAAAATA [CACACA_site6357],6.83
6,ATATATATATCAAAATGTACAAAAATAGAATTTAAA [XGTACX_site8292],8.27
7,CCTTTCCTAGCACATGCACACAAAAAAAAAAAAAAA [CACACA_site8396],7.9
8,AAAATTAAAATATCACGTACGAAGAAAAAATTAAGA [XGTACX_site6437],6.96
9,TACACCCACCAACACACACACACACTAATAAAAAAA [CACACA_site8060],7.64
10,ATCTTTTTACTTAATACACACACACCCAAAAAAAAA [CACACA_site8221],7.78
11,AAACGGCTATTAAAATGTACATGTAAATATATTAAA [XGTACX_site918],6.96
12,AATACATATGGGTGTACACATTATATATATATATAT [CACACA_site4601],9.35
13,CATGAATATTTATACATGCACACTAAAATAAAGAAT [CACACA_site2412],8.63
14,GAGGGTATAATAAAAGCACACACAAAGATATAAATA [CACACA_site9087],7.22
15,TATATATATATATACACACACACACCCCAAAGCGTA [CACACA_site64],9.76
16,ACATTTTGTAAAGAATGTACATATATATATATATTC [XGTACX_site8004],7.33
17,AAAAAATGCGACATGTGTACACATATATATATATAT [XGTACX_site1679],9.79
18,GAAAATATTACATACACGCACACATTAATATATTTA [CACACA_site2604],7.32
19,GTTTCTATTCACATTTTACACACGTCCATCGCATTT [CACACA_site9142],7.45
20,TTTTGTTGTATGATAATTCTTTTATCAATATGTCTT [TGCATGCA_negctrl_site567],6.63
21,ACCAAATTATCAAATGGTACACATAAAATAATAAAA [XGTACX_site865],7.12
22,TAATTAACCTATGCATTCATATAGATACATAAATAT [CACACA_negctrl_site885],7.06

row,Sequence,gcPBM binding intensity (ln)
1,AGATCATAATATTATACACACATTATGTATATGTAA [CACACA_site1490],6.84
2,TGAATACATAAATATAGTACATATATATATATATTA [XGTACX_site8756],7.37
3,TATAATATTATTTGAAGTACAAACATAAAAGAATTA [XGTACX_site3161],7.13
4,TACAAAAAATTATGGAGTACATATATAATATACAAT [XGTACX_site1004],6.96
5,GAACCATTTTTTGGTATACACACGTAATTATAGAAT [CACACA_site1851],6.89
6,ATATACATATCATGTAGTACAATTTTTTTACTTTTT [XGTACX_site7988],6.95
7,CACTTTTTTTAAATGTGTACGTATATGAAAATATCA [XGTACX_site4854],7.15
8,TAAAAAAATAAAATTACACACATATATAGATATATA [CACACA_site7273],6.66
9,TAAACAAAAAGGAAGAGTACTTGTAAAATTTGTAAA [XGTACX_site3003],6.93
10,ACAAAAAAAAATATGTTAACTATATATATATATATA [CACACA_negctrl_site346],9.39
11,AATTGGGAACTGTAATGTACATATATTGAAAGTATA [XGTACX_site7081],7.13
12,TATTTATTTGTACATATACACACTTAAATATGTTTA [CACACA_site3902],7.06
13,TTATATTTCTTGAAGGGTACATACCATTATTTTTAA [XGTACX_site1159],7.03
14,ATATATTTATATATTACACACAATATTGGAGACATA [CACACA_site931],6.98
15,AGAAAACTCGCTTTTCTAAATCTCAAAAAAAAAAAA [XGTACX_negctrl_site94],6.91
16,ATACATATATTAGGATGTACGTTTATTTTAGTTATT [XGTACX_site7169],7.2
17,CATATCTCAATTTATGCATGCAGGATTTTTCTAATA [TGCATGCA_site516],6.98
18,TTTTTTTTTTTTTGGTGTACATTTATAAAAAAAAAA [XGTACX_site8368],7.45
19,AATATGTACAGACATACACACATATATATATATATA [CACACA_site1222],9.61
20,ACACAAAAAAAAAAAAAAAAAAAAAAAAAAAAGGAA [CACACA_negctrl_site1162],6.88
21,ACATATAAGATTATGTGTCCACAAAAAAATAAAACA [XGTACX_site2867],7.1
22,TTTTTAATAACACTTTTGAAAAATAAAATAAAATAA [CACACA_negctrl_site821],6.99

row,Sequence,gcPBM binding intensity (ln)
1,TTTTTTTATTATTCTTATATAAAAATTTTTTTTAAT [CACACA_negctrl_site159],6.73
2,TTTTATGTTCTTAATGCACACTTATAAGTATCTTAT [CACACA_site4895],7.53
3,TTATTCTTTTAATATACACACTTTGTCTTTTCGCGC [CACACA_site5525],6.8
4,ATATATATAAAAGAAACAACATTTATTCAAAAGGTA [CACACA_negctrl_site749],7.25
5,TTTTAAATTTAGTGTAGTACACTTTTTTCAAATATA [XGTACX_site4659],7.02
6,TACTTTTATAAAAATTTTATCAAATTCTATATATGT [TGCATGCA_negctrl_site308],6.96
7,ATATTATCATTTTTTTTAATGGAAAAAAAAAAAAAA [CACACA_negctrl_site1298],6.87
8,ATATAATTCAAATACAGTACATATACAATATATACA [XGTACX_site1191],7.01
9,AATAACAAAATAGGCACACGCACATATATATATATA [CACACA_site1497],9.49
10,TATTTTTCTTTTTAAAAATATATCACATGAACATTA [XGTACX_negctrl_site183],6.67
11,TACATATTTATATACACACACACACGGATATTTATA [CACACA_site7239],7.1
12,GCACCCTGTATGAATGCACACATTCATAGAATTGCT [CACACA_site5475],8.46
13,ATTCAAAAGATGTATACACACATGTGGATAATATAA [CACACA_site2443],6.9
14,TGATCAAATAAGTTTGCATGTCAACAATGCATATAT [TGCATGCA_site1025],7.19
15,GAATTCCTTTGTGTATGTACATAATGATATTATTTT [XGTACX_site7369],6.98
16,CCCCTTGTGGATTCTACACACAAAAAGTCGTCAAAA [CACACA_site821],7.12
17,TAATTTTTTAAACACACACACATATATATATATATA [CACACA_site4230],9.45
18,TTTTTTTTTTTTGGTAGTACATAATATTAATATAAT [XGTACX_site4422],7.01
19,TATATTTTCCTGCAAACACACATATAAATGGGTAGA [CACACA_site4451],7.08
20,ATATATATATATATGGTGCATGAAAATTTACTTTGA,9.74
21,ATATACTCATTTAATACACACAAAGAGAAAATTAAT [CACACA_site1923],6.89
22,GATATTTGTTCATATACACACTTTTGATAAAATATG [CACACA_site4807],7.01

# — the supplement of paper PMC11417369
